The text below walks through data of article PMC4336329 (PLoS ONE, 2015).

The whole screen tested about 310,000 compounds, of which about 2,200 (0.71%) showed an effect of 50% or more. The effect is printed as a negative number. The list shows a part of the results.

The target in this assay is human ether-à-go-go-related gene (hERG) potassium channel (human, UniProt Q12809). Nature of the assay: primary screen, population patch clamp on CHO cells stably expressing hERG.
human ether-à-go-go-related gene (hERG) potassium channel, sequence (Q12809 whole entry, looked up): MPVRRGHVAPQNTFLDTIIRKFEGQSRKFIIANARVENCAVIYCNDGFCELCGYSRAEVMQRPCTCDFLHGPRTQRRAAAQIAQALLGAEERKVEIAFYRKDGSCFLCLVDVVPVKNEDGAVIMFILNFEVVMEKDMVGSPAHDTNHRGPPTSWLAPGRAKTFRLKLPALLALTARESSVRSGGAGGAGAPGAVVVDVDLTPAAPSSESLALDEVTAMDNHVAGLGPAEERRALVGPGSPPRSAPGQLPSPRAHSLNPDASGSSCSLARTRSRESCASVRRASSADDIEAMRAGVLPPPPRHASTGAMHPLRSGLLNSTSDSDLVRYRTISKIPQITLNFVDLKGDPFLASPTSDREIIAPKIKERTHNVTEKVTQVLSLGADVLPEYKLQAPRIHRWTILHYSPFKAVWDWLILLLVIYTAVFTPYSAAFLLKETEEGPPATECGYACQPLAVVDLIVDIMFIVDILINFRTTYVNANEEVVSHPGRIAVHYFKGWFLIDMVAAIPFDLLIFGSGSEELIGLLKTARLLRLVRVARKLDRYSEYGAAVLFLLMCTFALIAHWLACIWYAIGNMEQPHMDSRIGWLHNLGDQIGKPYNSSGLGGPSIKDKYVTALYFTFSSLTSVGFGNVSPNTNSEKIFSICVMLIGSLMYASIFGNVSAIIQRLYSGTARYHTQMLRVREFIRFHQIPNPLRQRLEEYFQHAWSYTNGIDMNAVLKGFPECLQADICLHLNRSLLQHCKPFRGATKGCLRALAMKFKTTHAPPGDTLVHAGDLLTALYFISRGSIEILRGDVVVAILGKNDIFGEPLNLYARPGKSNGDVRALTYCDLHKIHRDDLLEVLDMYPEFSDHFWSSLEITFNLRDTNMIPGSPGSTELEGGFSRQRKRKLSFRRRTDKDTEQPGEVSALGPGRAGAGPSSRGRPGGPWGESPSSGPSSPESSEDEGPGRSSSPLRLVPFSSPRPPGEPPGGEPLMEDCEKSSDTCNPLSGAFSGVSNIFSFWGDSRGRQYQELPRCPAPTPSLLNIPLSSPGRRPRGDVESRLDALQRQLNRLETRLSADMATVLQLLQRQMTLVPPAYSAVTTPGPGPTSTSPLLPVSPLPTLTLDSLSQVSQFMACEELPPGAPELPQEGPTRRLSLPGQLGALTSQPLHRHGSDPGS
Consider `CC(=O)Nc1ccc(S(=O)(=O)N[C@H](C(=O)O)C(C)C)cc1`, for which the “hERG current change (%, negative = inhibition) at 1uM” value was determined as 7.15%.

In the case of `CN(C(=O)c1ccno1)c1nnc(-c2cnccn2)s1`, the “hERG current change (%, negative = inhibition) at 1uM” value is listed as 8.19%.

Regarding `CC(C)(C)OC(=O)CNC(=O)c1nc[nH]c1C(=O)NCc1ccc(CNC(=O)OC(C)(C)C)cc1`, the “hERG current change (%, negative = inhibition) at 1uM” value is -1.31%.

Consider `S=c1[nH]nc(-c2ccc(Br)cc2)n1-c1ccc2c(c1)OCCO2`, for which the “hERG current change (%, negative = inhibition) at 1uM” value came out at 10.9%.

Consider `CSc1cccc(NC(=O)/C=C/c2ccc(Cl)cc2)c1`, for which the “hERG current change (%, negative = inhibition) at 1uM” value is listed as 7.98%.

In the case of `CC(C)(C)C1CCc2onc(C(=O)NC3CCCC3)c2C1` (centres unmarked), the “hERG current change (%, negative = inhibition) at 1uM” value is recorded as -7.7%.

Regarding `COc1ccc(/C=N/NC(=O)CCc2n[nH]c(=O)[nH]c2=O)cc1OC`, the “hERG current change (%, negative = inhibition) at 1uM” value came to 2.86%.

For `O=C(Cn1nnc2ccccc2c1=O)NC1CCCc2ccccc21` (centres unmarked), the “hERG current change (%, negative = inhibition) at 1uM” value is 5.76%.

Consider `Cc1ccc(NC(=O)COC(=O)CCn2c(C)csc2=O)c([N+](=O)[O-])c1`, for which the “hERG current change (%, negative = inhibition) at 1uM” value is given as 7.32%.

Regarding `O=c1[nH]c2ccccc2nc1/C=C/c1ccccc1`, the “hERG current change (%, negative = inhibition) at 1uM” value turned out to be 17.5%.

Turning to `Cc1oc2c(c(C)cc3oc(=O)c(CC(=O)NCCCO)c(C)c32)c1C`, the “hERG current change (%, negative = inhibition) at 1uM” value came out at 15.8%.

Regarding `CS(=O)(=O)Nc1ccc(C(=O)NC2CCCCC2)cc1`, the “hERG current change (%, negative = inhibition) at 1uM” value came out at 9.45%.

For the compound `O=C(CSc1ccc2nnc(-c3ccc(Cl)cc3)n2n1)N1CCc2ccccc21`, the “hERG current change (%, negative = inhibition) at 1uM” value is listed as 4.23%.

`COC(=O)CCC(=O)OC1(C)C(=O)C2=CN(CCCCO)C(c3ccc(OC)cc3)=CC2=C(Br)C1=O` (centres unmarked): the “hERG current change (%, negative = inhibition) at 1uM” value turned out to be 7.75%.

In the case of `COCCn1c(C)cc(C(=O)COC(=O)CCS(=O)(=O)c2ccc(C)cc2)c1C`, the “hERG current change (%, negative = inhibition) at 1uM” value is given as -4.18%.

Take `Cc1ccc(NC(=S)NNC(=O)c2ccccc2O)c(C)c1`: the “hERG current change (%, negative = inhibition) at 1uM” value was 20.9%.

In the case of `Cc1c(C)c2c(OCC(=O)N3CCC[C@H]3C(=O)O)cc3c(c2oc1=O)CCC(C)(C)O3`, the “hERG current change (%, negative = inhibition) at 1uM” value turned out to be 12.3%.

With `CC(C)(C)NS(=O)(=O)c1ccc(CCC(=O)N2CCOCC2)cc1`, the “hERG current change (%, negative = inhibition) at 1uM” value is reported as -5.42%.

In the case of `CCC1CCc2sc(C(=O)N3CCN(c4ccccn4)CC3)cc2C1` (centres unmarked), the “hERG current change (%, negative = inhibition) at 1uM” value was -2.83%.

Consider `O=C(Nc1ccc2c(c1)OCCO2)C1CCN(S(=O)(=O)Cc2ccccc2)CC1`, for which the “hERG current change (%, negative = inhibition) at 1uM” value is given as 11.6%.

For `CCOc1c(Br)cc(CNC2CCCCCCC2)cc1OC.Cl`, the “hERG current change (%, negative = inhibition) at 1uM” value came to 5.48%.

Consider `O=[N+]([O-])c1cc(Cl)c(Cl)cc1Cl`, for which the “hERG current change (%, negative = inhibition) at 1uM” value worked out at 9.77%.

Regarding `O=C1CSC(c2ccncc2)N1Cc1ccccc1` (centres unmarked), the “hERG current change (%, negative = inhibition) at 1uM” value is listed as 20.7%.

For the compound `Cc1ccc(C2=NN3C(C2)c2ccccc2OC32C(=O)Nc3ccccc32)cc1` (centres unmarked), the “hERG current change (%, negative = inhibition) at 1uM” value amounted to 6.78%.

On to `O=C(NCc1cccnc1)C1CCCN(S(=O)(=O)c2ccccc2)C1` (centres unmarked), for which the “hERG current change (%, negative = inhibition) at 1uM” value was 6.03%.

On to `Nc1ccc(C(=O)Oc2ccc([N+](=O)[O-])cc2)cc1`, for which the “hERG current change (%, negative = inhibition) at 1uM” value came out at 14.1%.

As to `COc1cccc(N2CCN(C(=O)CSc3ccc(F)cc3)CC2)c1`, the “hERG current change (%, negative = inhibition) at 1uM” value is given as -4.49%.

With `COc1ccc(NCc2ccc([N+](=O)[O-])s2)c(OC)c1`, the “hERG current change (%, negative = inhibition) at 1uM” value is on record as -2.19%.

With `COc1ccc(Nc2nc(C)c3ccccc3n2)cc1`, the “hERG current change (%, negative = inhibition) at 1uM” value was -4.17%.

As to `CC(=O)/C(C[N+]1(C)CCCCC1)=N\O.[I-]`, the “hERG current change (%, negative = inhibition) at 1uM” value was 15.1%.

For the compound `CCOc1ccc(C(=O)NC(C(=O)NCCc2ccc(OC(F)F)cc2)C(C)C)cc1` (centres unmarked), the “hERG current change (%, negative = inhibition) at 1uM” value is recorded as -21.9%.

For `CNC(=O)c1ncoc1-c1ccc(Cl)cc1`, the “hERG current change (%, negative = inhibition) at 1uM” value is 7.99%.

In the case of `CN(C(=O)c1ccc(NC(=O)Cc2ccc(NC(=O)C3CCN(C(=O)C4CCCC4)CC3)cc2)cc1)C1CC1`, the “hERG current change (%, negative = inhibition) at 1uM” value worked out at 20.8%.

For `Cn1c(=O)c2c(ncn2CC(COCc2ccc(Cl)cc2)OCc2ccc(Cl)cc2)n(C)c1=O` (centres unmarked), the “hERG current change (%, negative = inhibition) at 1uM” value is -4.17%.

As for `Cc1cc(OCC(=O)NCCCN(C)C)cc(C)c1Br`, the “hERG current change (%, negative = inhibition) at 1uM” value was 15.5%.

Consider `CCC1(c2ccccc2)C(=O)NCNC1=O`, for which the “hERG current change (%, negative = inhibition) at 1uM” value came to 3.37%.

As for `CCOc1ccc(N(C(=O)/C=C/C(=O)Nc2cc(C)on2)C(C(=O)NC2CCCC2)c2ccccc2C)cc1` (centres unmarked), the “hERG current change (%, negative = inhibition) at 1uM” value worked out at 4.64%.

Consider `Cn1c(SCC(=O)N2CCCc3ccccc32)nnc1-c1ccccc1`, for which the “hERG current change (%, negative = inhibition) at 1uM” value was -3.28%.

`c1ccc(-c2ccccc2OCCCCn2ccnc2)cc1`: the “hERG current change (%, negative = inhibition) at 1uM” value was found to be 5.64%.

As for `CCCC(=O)c1c[nH]c(C(=O)NCCCN2CCOCC2)c1`, the “hERG current change (%, negative = inhibition) at 1uM” value is given as 8.7%.

In the case of `COc1cc(C(=O)N2CCN(C(=O)c3ccco3)CC2)cc(OC)c1OC`, the “hERG current change (%, negative = inhibition) at 1uM” value was found to be 1.52%.

On to `O=C(COC(=O)c1ccc2ncsc2c1)NC(=O)NCc1ccccc1`, for which the “hERG current change (%, negative = inhibition) at 1uM” value turned out to be 8.32%.

Regarding `O=C1C2ON(c3ccccc3)C(c3ccncc3)C2C(=O)N1c1ccc(N2CCOCC2)cc1` (centres unmarked), the “hERG current change (%, negative = inhibition) at 1uM” value is listed as 8.31%.

As to `Cc1occc1-c1nnc(SCC(=O)NCCc2ccccc2)n1Cc1ccccc1`, the “hERG current change (%, negative = inhibition) at 1uM” value is -17.8%.

As for `NC(=O)C1CCN(C(=O)CCSCc2ccccc2)CC1`, the “hERG current change (%, negative = inhibition) at 1uM” value is given as 14%.

Consider `COC(=O)c1[nH]c2ccccc2c1NC(=O)CN1CCN(c2cccc(Cl)c2)CC1`, for which the “hERG current change (%, negative = inhibition) at 1uM” value is listed as 12.5%.

Consider `Cc1cccc(C)c1NC(=O)CC(C)c1ccccc1` (centres unmarked), for which the “hERG current change (%, negative = inhibition) at 1uM” value amounted to 5.93%.

As for `Cc1cccn2c(=O)c3cc(C(=O)NCc4ccco4)c(=N)n(C(C)C)c3nc12`, the “hERG current change (%, negative = inhibition) at 1uM” value is recorded as -84.9%.

For the compound `CN(C(=O)COC(=O)/C=C/c1ccc(C(F)(F)F)cc1)c1c(N)n(Cc2ccccc2)c(=O)[nH]c1=O`, the “hERG current change (%, negative = inhibition) at 1uM” value was found to be 8.48%.

For the compound `COc1cccc([C@@H]2CC=C(C(=O)O)[C@H](c3cccc(Cl)c3)N2S(=O)(=O)c2ccc(C)cc2)c1`, the “hERG current change (%, negative = inhibition) at 1uM” value was determined as 9.08%.

Turning to `O=C(CSCc1ccc(F)cc1)N1CCOCC1`, the “hERG current change (%, negative = inhibition) at 1uM” value is recorded as 0.424%.

`Cc1ccc(S(=O)(=O)N2CCOCC2)cc1C(=O)NCc1ccccn1`: the “hERG current change (%, negative = inhibition) at 1uM” value was found to be 6.43%.

`Cc1ccc(-n2c3c(cc(C(=O)NC4CCSC4=O)c2=O)C(=O)CC(C)(C)C3)cc1` (centres unmarked): the “hERG current change (%, negative = inhibition) at 1uM” value amounted to 11.6%.

On to `O=C(NCCCN1CCCC1=O)c1ccc(OCc2ccccc2)cc1`, for which the “hERG current change (%, negative = inhibition) at 1uM” value is 9.46%.

As for `Cc1cc(C(=O)COC(=O)c2ccc(NC(=O)CC#N)cc2)c(C)n1CCc1ccc(F)cc1`, the “hERG current change (%, negative = inhibition) at 1uM” value is reported as 6.78%.

Take `CCCC[N+](CC#Cc1ccccc1)(CCCC)CCCS(=O)(=O)[O-]`: the “hERG current change (%, negative = inhibition) at 1uM” value came out at 18.2%.
